# Experimental data: PubChem BioAssay (Tox21)
# “And” between values parts separate entries of the source, which are not always exact repeats. Identical values can stand only once. The inconclusive results got no clear call from the source; some entries with a clear call stand among them for comparison. A call without a number means that no potency is given here. For some assays here: Potencies beside an inconclusive call are fits to weak or partial responses and may not hold up. Where a structure was tested more than once in an assay, its records may differ in their call. The source made the active and inactive calls. Unless noted, calls follow the shape of the dose curve; as a rule, active = well fitted curve in the direction sought with a large enough effect in the repeat runs; inconclusive = weak or mixed curves; inactive = no such curve, though single readings can be large; an effect the other way counts as inactive or inconclusive.
# How the values were obtained:
# [1] = Caspase-3/7 induction in CHO-K1 cells by small molecules, qHTS assay (AID 1346980); details: CHO-K1 caspase-3/7 induction, Caspase-Glo luminescence, 17 h; series mostly up to 92.4 µM; also: nearly all actives have a fitted effect of over 15% in size; also: potency is read from the fitted curve at half-maximal effect
# In short: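 Wild-type CHO-K1 cells exposed to compounds for 17hr at 37 C, 5% CO2. Caspase-3/7 activity then measured by Caspase-Glo 3/7 luminescence after 30min at room temperature.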
# [2] = qHTS assay to identify small molecule antagonists of the androgen receptor (AR) signaling pathway using the MDA cell line in the presence of 0.5 nM R1881 - cell viability counter screen (AID 1259242); details: MDA-kb2 viability, CellTiter-Fluor protease fluorescence, 16 h; series mostly up to 92.4 µM; also: nearly all actives have a fitted effect of over 45% in size
# In short: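 Cells seeded at 3,000/well and allowed 5 hr at 37C, 0% CO2 before compound transfer and R1881 (0.5 nM final) addition; 16 hr later, live-cell protease fluorescence indicated cytotoxicity.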
# [3] = molecular target: Glucocorticoid receptor (Homo sapiens) (UniProt P04150); experiment: qHTS assay to identify small molecule agonists of the glucocorticoid receptor (GR) signaling pathway (AID 720691; active = well fitted activation curve with a large enough effect in the signal ratio in the repeat runs, not every such curve was filed as active; inconclusive = weak or mixed curves, or effect the other way; inactive = no such curve, though single readings can be large or run the other way; the % refers to the signal ratio); details: GR-bla HeLa, beta-lactamase reporter ratio, 18 h; activation: at 62.4 µM (top of the series) unless noted
# Sequence of UniProt P04150 (P04150 whole entry, looked up): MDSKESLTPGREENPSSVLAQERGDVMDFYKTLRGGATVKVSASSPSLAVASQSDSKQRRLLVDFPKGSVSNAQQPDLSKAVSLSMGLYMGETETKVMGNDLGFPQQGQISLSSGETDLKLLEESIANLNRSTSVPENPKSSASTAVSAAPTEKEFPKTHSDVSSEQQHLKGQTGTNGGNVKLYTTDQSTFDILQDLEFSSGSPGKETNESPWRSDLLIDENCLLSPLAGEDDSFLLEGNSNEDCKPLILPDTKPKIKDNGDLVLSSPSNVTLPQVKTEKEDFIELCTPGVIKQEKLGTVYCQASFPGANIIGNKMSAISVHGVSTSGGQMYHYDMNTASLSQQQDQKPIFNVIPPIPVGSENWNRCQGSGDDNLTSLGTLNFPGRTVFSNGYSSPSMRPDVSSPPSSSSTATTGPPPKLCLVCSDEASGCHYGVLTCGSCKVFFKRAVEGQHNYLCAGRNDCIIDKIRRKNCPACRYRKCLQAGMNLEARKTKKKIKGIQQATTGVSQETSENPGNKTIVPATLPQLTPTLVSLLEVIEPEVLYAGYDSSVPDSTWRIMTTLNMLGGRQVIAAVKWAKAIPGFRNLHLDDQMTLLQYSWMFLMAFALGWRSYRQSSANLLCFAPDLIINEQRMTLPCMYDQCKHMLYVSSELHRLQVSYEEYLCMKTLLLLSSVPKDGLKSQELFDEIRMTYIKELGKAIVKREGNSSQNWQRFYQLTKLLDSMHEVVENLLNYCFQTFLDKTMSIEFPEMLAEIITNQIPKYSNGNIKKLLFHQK
# In short: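 Compounds in DMSO, alongside positive controls, were added to GR-bla HeLa reporter cells and incubated 18 h at 37 C; GRE-driven beta-lactamase was detected by fluorescence after 2 h with FRET substrate at room temperature.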
# [4] = molecular target: Androgen receptor (Homo sapiens) (UniProt P10275); experiment: qHTS assay to identify small molecule agonists of the androgen receptor (AR) signaling pathway (AID 743036; active = well fitted activation curve with a large enough effect in the signal ratio in the repeat runs, with a control signal flat, not every such curve was filed as active; inconclusive = weak or mixed curves, or effect the other way; inactive = no such curve, though single readings can be large or run the other way; the % refers to the signal ratio; also: potency is read from the fitted curve at half-maximal effect); details: HEK293 AR-UAS-bla GripTite, beta-lactamase FRET ratio, 16 h; activation: at 62.4 µM (top of the series) unless noted
# Sequence of UniProt P10275 (P10275 whole entry, looked up): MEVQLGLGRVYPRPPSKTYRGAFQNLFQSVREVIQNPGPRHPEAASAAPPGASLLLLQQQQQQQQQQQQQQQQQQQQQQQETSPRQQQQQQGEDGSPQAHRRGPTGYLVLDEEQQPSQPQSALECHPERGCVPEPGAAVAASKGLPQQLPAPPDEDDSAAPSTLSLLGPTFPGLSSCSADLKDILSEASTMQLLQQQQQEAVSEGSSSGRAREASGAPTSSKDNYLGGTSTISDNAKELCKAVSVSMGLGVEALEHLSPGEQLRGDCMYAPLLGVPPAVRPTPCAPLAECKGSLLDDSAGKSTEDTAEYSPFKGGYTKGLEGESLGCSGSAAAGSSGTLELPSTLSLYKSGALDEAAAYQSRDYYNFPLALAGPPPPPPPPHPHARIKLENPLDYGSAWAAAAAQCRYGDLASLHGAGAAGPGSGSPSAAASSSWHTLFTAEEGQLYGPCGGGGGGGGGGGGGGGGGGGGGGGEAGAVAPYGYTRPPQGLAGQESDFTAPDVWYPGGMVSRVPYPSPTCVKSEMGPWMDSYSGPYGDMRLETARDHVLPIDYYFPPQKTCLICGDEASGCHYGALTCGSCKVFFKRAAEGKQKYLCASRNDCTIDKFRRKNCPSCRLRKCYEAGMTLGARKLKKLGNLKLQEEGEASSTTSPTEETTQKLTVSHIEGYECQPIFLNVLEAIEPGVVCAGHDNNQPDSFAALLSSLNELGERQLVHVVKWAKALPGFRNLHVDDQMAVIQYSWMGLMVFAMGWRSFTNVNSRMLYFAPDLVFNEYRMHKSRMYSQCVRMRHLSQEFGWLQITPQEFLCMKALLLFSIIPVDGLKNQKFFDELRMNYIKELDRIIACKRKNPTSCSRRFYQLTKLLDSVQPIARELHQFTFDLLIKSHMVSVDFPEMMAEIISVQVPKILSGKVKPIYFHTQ
# In short: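 Cell-based FRET reporter assay: HEK293 line with a UAS-beta-lactamase construct, compounds added in DMSO, 16 h exposure at 37C, then 2 h substrate step at room temperature and fluorescence intensity read.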
# [5] = qHTS assay to identify small molecule agonists or antagonists of the thyroid stimulating hormone receptor (TSHR) signaling pathway - wild type cell line counter screen (AID 1259384; calls by dose curve); details: HEK293 wild type, cAMP HTRF counter-screen; cAMP activity change: at 92.4 µM (top of the series), stronger effect = higher value unless noted
# In short: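 Wild-type Hek293 cells, 800/well, 18 h at 37C, then compound with Ro20-1724 for 30 min RT. cAMP by HTRF (cAMP-d2/anti-cAMP cryptate), 1 h RT, fluorescence read. 15 concentrations, triplicates.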
# [6] = qHTS assay to identify small molecule agonists of the hypoxia (HIF-1) signaling pathway (AID 1224846; active = well fitted activation curve with a large enough effect in the signal ratio in the repeat runs, not every such curve was filed as active; inconclusive = weak or mixed curves; the % refers to the signal ratio); details: HRE-bla ME-180 cells, beta-lactamase ratio, 17 h; activation: at 76.8 µM (top of the series) unless noted
# In short: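 ME-180 HRE-bla reporter cells; compounds in DMSO, 17 h at 37C; read-out beta-lactamase via CCF4-AM FRET.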
# [7] = qHTS assay to identify small molecule HDAC inhibitors - cell viability counter screen (AID 1259365); details: HCT-116 viability, CellTiter-Glo ATP luminescence, 2 h; series mostly up to 92.4 µM; also: nearly all actives have a fitted effect of over 50% in size; also: potency is read from the fitted curve at half-maximal effect
# In short: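 After overnight seeding at 1,500 cells per well, wild-type HCT-116 cultures took up compounds in DMSO for 2hr at 37 C. Viable cell content came from luminescence with CellTiter-Glo.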
# [8] = qHTS assay to identify small molecule antagonists of the estrogen related receptor signaling pathway with the pleiotropic PPARgamma coactivator (PGC) from Tox21 10K library - cell viability counter screen (AID 1224840; active = well fitted cell-killing curve with a large enough effect in the repeat runs, not every such curve was filed as active; inconclusive = weak or mixed curves, or effect the other way; inactive = no such curve, though single readings can be large or run the other way; also: nearly all actives have a fitted effect of over 40% in size); details: PGC/ERR reporter cells viability, CellTiter-Fluor, 17.5 h; series mostly up to 92.4 µM
# In short: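 Readout: fluorescence intensity from CellTiter-Fluor after 30 min at 37 C/5% CO2. Preceded by 17.5 h treatment of PGC/ERR cells with DMSO-dissolved compounds, added 6 h post-seeding.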
# [9] = A CellTox Green Cytotoxicity Assay to monitor cytotoxicity in HEK293 cells - 16 hour (AID 1224888); details: CellTox Green fluorescence; series mostly up to 76.8 µM; also: nearly all actives have a fitted effect of over 35% in size; also: potency is read from the fitted curve at half-maximal effect
# In short: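 Real-time, in one plate: 600 HEK293 cells/well with dead-cell DNA dye, pinned compound after 5 h, 37 C incubation over 40 h; viable cells give no appreciable fluorescence.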
# [10] = qHTS RealTime-Glo MT Cell Viability Assay in HepG2 cells - 24 hour (AID 1224867); details: RealTime-Glo luminescence; series mostly up to 76.8 µM; also: nearly all actives have a fitted effect of over 50% in size; also: potency is read from the fitted curve at half-maximal effect
# In short: (§1)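 qHTS, HepG2, 600 cells/well, RealTime-Glo (NanoLuc + prosubstrate) added with cells; 5 h preincubation; DMSO compound addition; 37 C; luminescence at 0/8/16/24/32/40 h.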
# [11] = A CellTox Green Cytotoxicity Assay to monitor cytotoxicity in HepG2 cells - 16 hour (AID 1224876); details: CellTox Green fluorescence; series mostly up to 76.8 µM; also: nearly all actives have a fitted effect of over 45% in size; also: potency is read from the fitted curve at half-maximal effect
# In short: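 Cytotoxicity was tracked as dead-cell DNA fluorescence in HepG2 cells treated with test compounds at 37 C; each time-point value comes from one kinetic series spanning 0, 8, 16, 24, 32 and 40 h.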
# [12] = qHTS assay to identify small molecule agonists of the estrogen related receptor signaling pathway with the pleiotropic PPARgamma coactivator (PGC) from Tox21 10K library (AID 1224842); details: PGC/ERR reporter cell line, luciferase ONE-Glo, 18 h; series mostly up to 92.4 µM; also: potency is read from the fitted curve at half-maximal effect; nearly all actives have a fitted effect of over 15% in size
# In short: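 PGC/ERR reporter cell line, 2,000 cells per well, incubated 6 h at 37 C before 23 nL compound in DMSO was added. After 18 h at 37 C, One-Glo luminescence read following 30 min at room temperature.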
# [13] = molecular target: Androgen receptor (Homo sapiens) (UniProt P10275); experiment: qHTS assay to identify small molecule antagonists of the androgen receptor (AR) signaling pathway using the MDA cell line in the presence of 0.5 nM R1881 (AID 1259243); details: MDA-kb2 MMTV-luciferase, R1881 0.5 nM, 16 h; series mostly up to 42.5 µM; also: nearly all actives have a fitted effect of over 50% in size; also: potency is read from the fitted curve at half-maximal effect
# In short: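 Luminescence from an AR/GR-responsive MMTV-luciferase construct in MDA-kb2 breast carcinoma cells, read 30 min after ONE-Glo, following 16 hr co-treatment with compounds and 0.5 nM R1881.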
# [14] = qHTS assay to identify small molecule phospholipidosis (PLD) inducers (AID 1259344; active = well fitted curve in the direction sought with a large enough effect; inconclusive = small, poorly fitted or top-dose-only effect, or another doubt; inactive = no such curve, though single readings can be large; an effect the other way counts as inactive or inconclusive; also: potency is read from the fitted curve at half-maximal effect); details: HepG2 phospholipidosis, LipidTOX Red imaging, 24 h; PLD induction: at 38.3 µM (top of the series) unless noted
# In short: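 Image-based: LipidTOX Red pit count/intensity per well and per cell; HepG2, 24 h compound at 37 C, PFA fixation, Hoechst counterstain.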
# [15] = molecular target: Nuclear receptor subfamily 1 group I member 2 (Homo sapiens) (UniProt O75469); experiment: CYP3A4 induction through human pregnane X receptor (PXR) by small molecules, qHTS assay (AID 1346984); details: DPX-2 HepG2 PXR, CYP3A4-luciferin luminescence, 24 h; activation: at 46.1 µM (top of the series) unless noted; also: potency is read from the fitted curve at half-maximal effect; nearly all actives have a fitted effect of over 40% in size
# In short: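 Cells (DPX-2; HepG2 with PXR element plus CYP3A4-promoter luciferase) settled 5hr, then were treated 24hr at 37C. A 3hr, 3uM-final Luciferin-IPA step preceded luminescence measurement with One-Glo.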
# [16] = qHTS assay to identify small molecule agonists of the constitutive androstane receptor (CAR) signaling pathway - cell viability counter screen (AID 1224836); details: HepG2-CYP2B6-hCAR viability, CellTiter-Fluor, 23 h, PK11195 added to every well; series mostly up to 92.4 µM; also: nearly all actives have a fitted effect of over 45% in size; also: potency is read from the fitted curve at half-maximal effect
# In short: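 Using CellTiter-Fluor, viability of HepG2 cells harbouring hCAR and CYP2B6-2.2kb was measured following 23 h incubation with a 15-concentration compound series plus PK11195 (0.75 uM final).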
# [17] = qHTS assay for small molecule activators of the heat shock response signaling pathway - cell viability counter screen (AID 743209); details: HSE-bla HeLa viability, CellTiter-Glo luminescence, 5 h; activity change, negative = cytotoxicity: at 62.6 µM (top of the series) unless noted; also: potency is read from the fitted curve at half-maximal effect; nearly all actives have a fitted effect of over 50% in size
# In short: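 Compounds dissolved in DMSO were added to overnight-plated HSE-bla HeLa cells and left 5 h at 37 C. Cell viability was quantified by luminescence using CellTiter-Glo.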
# [18] = qHTS RealTime-Glo MT Cell Viability Assay in HepG2 cells - 32 hour (AID 1224877); details: RealTime-Glo luminescence; series mostly up to 76.8 µM; also: nearly all actives have a fitted effect of over 55% in size
# In short: as §1
# [19] = qHTS assay to identify small molecule antagonists of the estrogen receptor alpha (ER-alpha) signaling pathway using the BG1 cell line in the presence of 0.1 nM 17-beta-estradiol - cell viability counter screen (AID 1259241); details: VM7Luc4E2 (BG1) viability, CellTiter-Fluor protease, 22 h, 0.1 nM estradiol agonist added; series mostly up to 92.4 µM; also: nearly all actives have a fitted effect of over 40% in size
# In short: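 Estradiol-stimulated (0.1 nM) VM7Luc4E2 cells exposed to compounds 22 hr; viability measured by fluorescence of cleaved CellTiter-Fluor substrate after 30 min.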
# Tags tell the direction and shape of the fitted curve or compound fluorescence and quenching.
smiles,measurement,setting,value
CC/C=C\CCOC(=O)CC,Potency,[1],inactive
C1=Cc2ccccc2C1,Potency,[2],inactive
CCCCNc1ccccc1,Potency,[3],inactive
same,Potency,[4],"inconclusive: 0.49 µM [fluorescent, single point]"
CCCCCCCCC(=O)OCC,Potency,[5],inactive
CCc1occc(=O)c1O,Potency,[6],inactive
O=S(=O)(O)c1cc(O)c2ccc(Nc3ccccc3)cc2c1,Potency,[7],inactive
CCOC(=O)C(=O)OCC,Potency,[8],inactive
same,Potency,[9],inactive
COc1ccc(/C(C)=C/C(=O)O)c(OC)c1,Potency,[5],inactive
C=C[Si](C)(C)O[Si](C)(C)C=C,Potency,[5],inactive
CC/C=C\CC/C=C/C(OCC)OCC,Potency,[10],inactive
same,Potency,[11],inactive
O=C1c2ccccc2C(=O)c2c(Cl)cccc21,Potency,[12],"inconclusive: 25.7 µM [activator, partial curve, poor fit]"
same,Potency,[13],"inconclusive: 12.9 µM [inhibitor, partial curve]"
CC(C)C(=O)OCc1ccccc1,Potency,[11],"inconclusive: 61.6 µM [activator, single point]"
same,Potency,[9],"inconclusive: 54.9 µM [activator, single point]"
OC(CCN1CCCCC1)(c1ccccc1)C1CC2C=CC1C2 (stereo unspecified),Potency,[14],"inconclusive: 14.1 µM [activator, partial curve, poor fit] and inconclusive: 28.2 µM [activator, single point]"
same,Potency,[15],active: 28.2 µM
CN1CCC(OC(c2ccccc2)c2ccccc2)CC1,Potency,[16],inactive
COC(=O)c1cccc(Cl)c1,Potency,[5],inactive
CN(C)CC[C@@H](c1ccc(Br)cc1)c1ccccn1,Potency,[15],"inconclusive: 31.6 µM [activator, single point]"
C#CC(C)(CC)OC(=O)c1ccccc1C(=O)O (stereo unspecified),Potency,[10],inactive
Oc1cc(O)c2c(c1)O[C@H](c1ccc(O)c(O)c1)[C@H](O)C2,Potency,[10],inactive
C=C(C)C(=O)NCCC[N+](C)(C)C,Potency,[3],inactive
CN/C(=C\[N+](=O)[O-])NCCSCc1csc(CN(C)C)n1,Potency,[13],inactive
same,Potency,[14],inactive
CCCCCCCCCCCCI,Potency,[10],"inconclusive: 43.8 µM [falling, partial curve]"
CCC(=O)Oc1ccc2c(c1)CC[C@@H]1[C@@H]2CC[C@@]2(C)[C@H]1C[C@@H](OC(=O)CC)[C@@H]2OC(=O)CC,Potency,[6],inactive
same,Potency,[11],"inconclusive: 30.1 µM [activator, single point]"
C=C[C@H]1CN2CC[C@H]1C[C@H]2[C@H](O)c1ccnc2ccc(OC)cc12,Potency,[16],"inconclusive: 61.1 µM [cytotoxic, partial curve, poor fit]"
CO[Si](CCCNCCN)(OC)OC,Potency,[7],"inconclusive: 49.2 µM [cytotoxic, partial curve]"
same,Potency,[1],active: 27.7 µM
CCCCOC(=O)CC(CC(=O)OCCCC)(OC(C)=O)C(=O)OCCCC,activation,[3],inconclusive: -0.545% [phenotype inactive] [at 79.2 µM]
same,Potency,[17],"inconclusive: 4.73 µM [cytotoxic, partial curve, poor fit]"
same,Potency,[15],"inconclusive: 3.98 µM [activator, partial curve, poor fit]"
O=CN1CCCCC1,Potency,[18],inactive
CCOC(=O)OC(C)OC1=C(C(=O)Nc2ccccn2)N(C)S(=O)(=O)c2ccccc21 (stereo unspecified),Potency,[17],"inconclusive: 0.266 µM [cytotoxic, single point]"
CC(=O)CC(=O)OC(C)(C)C,Potency,[4],inconclusive: 54.9 µM [single point]
O=C(O)CC(O)C(=O)O (stereo unspecified),Potency,[19],inactive
same,Potency,[15],"inconclusive: 1.58 µM [activator, full curve, poor fit]"
